From the supplement of paper PMC11417369
The other results are listed elsewhere or left out.

test system: PfHDP1 homeodomain (GST-tagged); experiment: gcPBM binding intensity (ln(normalized median fluorescence intensity)); higher = stronger DNA binding
Procedure, shortened: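 Binding of GST-tagged P. falciparum DNA-binding domains, expressed in E. coli and used at about 25 μg on average, was carried out for 1 h in 1× PBS containing 1% milk, 0.2 mg/ml BSA, 0.5% salmon testes DNA and 0.03% Triton X-100. The target was an Agilent 4 × 180k array of primer-extended double-stranded 36-bp intergenic genomic probes plus negative controls, read with Alexa488 anti-GST antibody at 488 nm. Binding intensity is the highest Masliner-normalised natural-log median intensity across replicate spots of either probe orientation.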

In order of rising “gcPBM binding intensity (ln)” value:
1. AGGAGGTCAGTTCACAGTACCCAGAAACTCTACGAG [XGTACX_site2006]  5.8
2. TTTTTATGGATATTTATATTATATTATGATTAAAAA [TGCATGCA_negctrl_site204]  5.94
3. AAATGAAAGAATTAAAGTACATTTATATAATTTTAA [XGTACX_site3540]  5.96
4. ATTTATAATGATTTTTTTAGTAATCTTGTTATTTTT [XGTACX_negctrl_site373]  5.99
5. TGCATAAAAGTAAAAACATGCATGCCGTGGTATCTT [TGCATGCA_site664]  6.03
6. GAATTTTTTTAATGTTGTACTTTTTTTTTTTTTTCT [XGTACX_site648]  6.04
7. TTTCAAAAGTAATACTGTACTTATTTTTATGATTTA [XGTACX_site4184]  6.04
8. ATTTGTTTACCTAAAAGTACAAATTTTTTATGTATA [XGTACX_site7689]  6.09
9. TTTGGTTATATTTAAAAAAGACTAATGAAAATTAAA [XGTACX_negctrl_site526]  6.13
10. TCTTTTTTTTCTTTTTTTTTATTTAAATATCAAGTA [CACACA_negctrl_site1354]  6.14
11. AATAGTAAAAATCACTGTACGTTTATTTTTAAAATG [XGTACX_site1035]  6.15
12. AAAAAAAAAAATATAACACACAAAAAATTGTATCGA [CACACA_site1144]  6.15
13. AATAATACAAAAGTTCAACAAAAAAAAAAAAAAAAT [CACACA_negctrl_site952]  6.18
14. AAGATATCTAAGGAAATTAAACTACCAAAATATATA [TGCATGCA_negctrl_site338]  6.19
15. AACGAAAACACTACGTGTACCAAACGTCCTACTAAC [XGTACX_site4915]  6.22
16. TTTTTGTTAAACAGGGTGCTAATCTGAATTAATATT [GTGCAC_site9908]  6.24
17. TGTATAATATATATATGTACTTATGTATAATATTAT [XGTACX_site4328]  6.25
18. ACAAAATTTACAAAATGTACATATTGTAGATATTGT [XGTACX_site7618]  6.26
19. ACTCCTATATAAATGAACCATATTCATAATATATAT [CACACA_negctrl_site1636]  6.31
20. AAGGCAAGCACTTAAACATGCATATAATAATATCAT [TGCATGCA_site698]  6.35
21. ATATTATTTATAGGGTGTACCTTATTATTATAAGAA [XGTACX_site7148]  6.36
22. TTATACATAAATTTTGTACACACAAAAAAAAAAAAG [CACACA_site8374]  6.42
23. TATACATACAGACCCACACACAAAAAAAAAAAAAAA [CACACA_site6536]  6.44
24. ATTTTTTTTATTTTTTATATAATTTTTTTATATTAT [CACACA_negctrl_site1521]  6.45
25. TAATAATAATTATATACACACATGTATATTATATTT [CACACA_site1501]  6.45
26. GACATATAAATATACACACATACGTAAGTATATTAA [CACACA_site1790]  6.47
27. AAAAAAAAAAAAAATACACACATAAAATAAATAACA [CACACA_site439]  6.49
28. AAGAGAAAAACATACACACACAACAAAATATGTATA [CACACA_site2719]  6.5
29. CATACATATACATACAGTACATATTTTTTGTCAATT [XGTACX_site7357]  6.51
30. ATGTATTAAAAAAATTGTACTATAAAATGTAACCGC [XGTACX_site8083]  6.51
31. AAAAAAAAAAAAAACATACACACAAATATATACATA [CACACA_site4010]  6.54
32. TATATACTTTTATGTACACACCTATAATATGGGTGA [CACACA_site5044]  6.54
33. TATCCCTTAGAATACACACCCATATGAGTGTGAACT [CACACA_site7398]  6.55
34. GTATATATTTTTATTTAATAATTTGTTTATTTATTC [CACACA_negctrl_site647]  6.57
35. ATTTAAATATATTATTGTACATATACCTAATAAGAA [XGTACX_site6655]  6.57
36. AAAAAAAAAAAAAAAGCACACATCATATTATAATTC [CACACA_site3355]  6.66
37. ATAATATATATATATGCATGTACATATTTATCTTTA [TGCATGCA_site32]  6.74
38. ATATTATTTTAAAGTACACACATATATTAATATATA [CACACA_site2315]  6.75
39. CATACCATACATAAAACACACAAAATTTACAGAATA [CACACA_site7451]  6.81
40. TATAATATTATACATAGTACACATCACACATCGCAA [XGTACX_site4650]  6.82
41. TAGAAAAACATTACGTGTACCAAACATCCTAGCAAC [XGTACX_site4888]  6.82
42. TTATATGGCTCCATTTGTACGCATCCATGTTTTTAT [XGTACX_site6590]  6.91
43. AATATATTTATAAGCACACACTAATAAACACAGACA [CACACA_site4377]  6.91
44. CTTTATAATATTTGTTGTACACAAATATAACATATT [XGTACX_site709]  7.11
45. ACATATTTTATTTTTTGTACACATATATTATTTTTT [XGTACX_site6528]  7.22
46. ACATATATATATATATATATATATATATTACATTTA [CACACA_negctrl_site627]  7.51
47. AAATATATATATATATATATATATGTGTGTGTATAT [GTGCAC_negctrl_site1]  7.53
48. ATATCTTATGTTATCACACACACACGCACAAAACAG [CACACA_site6800]  7.65
49. TGTTTTGTTTTTTGGGGTACATGTTTTGTATTATAT [XGTACX_site7997]  7.94
50. AGTTATTAAAAATGTGCATGCAATGGTTTCTCTTAA [TGCATGCA_site634]  8.11
51. AATTTACAAATATAATGTACATAATTATATATATAT [XGTACX_site278]  8.55
52. TGTATTTATAAACATGCACACGTGGTTGTATTTATA [CACACA_site5762]  8.57
53. ATATATATATATTACACACACACAAAAAAAATAAAG [CACACA_site118]  8.63
54. ATATATATATATATATGTACATATATATATGTATAT [XGTACX_site3959]  9.22
55. CCATATACAACCATACGTACATATATATATATATAT [XGTACX_site8193]  9.33
56. GTACATAATTATTATGCACACATATTTTTATGTATT [CACACA_site8132]  10.5
